Results on 40 compounds are retold here after the antibiotic and cytotoxicity screens of Wong et al. (2023).

Molecules are shown by their SMILES. This is one part of the list.

This assay deals with HSkMC (human skeletal muscle cells). The assay is described as follows: cytotoxicity call (relative viability < 0.9). The note with it: 10 µM.
In the case of `CCCOC(=S)N[C@H]1OC[C@@H](O)[C@@H](O)[C@@H]1O`, the cytotoxicity call was “inactive”.

For the compound `C[C@@H]1CN([C@@H](C)CO)C(=O)CCCn2nncc2CO[C@H]1CN(C)C(=O)Nc1ccc2c(c1)OCO2`, the cytotoxicity call is “inactive”.

Regarding `CS(=O)(=O)N1CCC2(CC1)OCCO2`, the cytotoxicity call was “inactive”.

Regarding `CN1C(=S)N[C@@H]2CS(=O)(=O)C[C@@H]21`, the cytotoxicity call is “inactive”. The entry for `COc1ccc(NC(=O)N(C)C[C@H]2OCCCC[C@@H](C)Oc3ccc(NC(=O)Cc4ccccc4)cc3C(=O)N([C@@H](C)CO)C[C@H]2C)cc1` is “inactive”; for `C[C@H](CO)N1C[C@H](C)[C@@H](CN(C)S(=O)(=O)c2ccccc2)OCCCC[C@H](C)Oc2ccc(NS(=O)(=O)c3cn(C)cn3)cc2C1=O` it is “inactive”. The result for `Cc1ccc(S(=O)(=O)Nc2ccc3c(c2)C(=O)N([C@H](C)CO)C[C@@H](C)[C@@H](CN(C)S(=O)(=O)c2cn(C)cn2)O3)cc1` reads “inactive”; that for `C[C@@H]1CN([C@H](C)CO)C(=O)c2cc(NC(=O)C3CC3)ccc2O[C@H]1CN(C)S(=O)(=O)c1cn(C)cn1`, “inactive”; that for `C[C@@H]1CN([C@H](C)CO)C(=O)c2cc(NC(=O)Nc3ccc(F)cc3)ccc2O[C@@H](C)CCCCO[C@H]1CN(C)C(=O)C1CCCCC1`, “inactive”. The result for `COc1ccc(S(=O)(=O)Nc2ccc3c(c2)C(=O)N([C@H](C)CO)C[C@H](C)[C@H](CN(C)Cc2ccc(C(=O)Nc4ccccc4N)cc2)OCCCC[C@@H](C)O3)cc1` reads “inactive”. Consider `O=C(C[C@H]1CC[C@H]2[C@@H](COC[C@H](O)CN2C(=O)c2cnccn2)O1)NCc1ccc(Oc2ccccc2)cc1`, for which the cytotoxicity call was “inactive”. The entry for `Cc1noc(C)c1S(=O)(=O)N(C)C[C@H]1Oc2ccc(NC(=O)Cc3ccccc3)cc2CC(=O)N([C@H](C)CO)C[C@H]1C` is “inactive”; for `C[C@H]1CN([C@@H](C)CO)C(=O)CCCn2nncc2CO[C@H]1CN(C)C(=O)Nc1ccccc1C(F)(F)F` it is “inactive”; for `O=C(C[C@@H]1CC[C@@H]2[C@H](COC[C@H](O)CN2S(=O)(=O)c2ccc(Cl)cc2)O1)N[C@H]1CCN(Cc2ccccc2)C1` it is “inactive”. Turning to `CCCCCCO[C@@H](C)c1cccc(-c2csc(NC(=O)c3cc(Cl)c(/C=C(\C)C(=O)O)c(Cl)c3)n2)c1OC`, the cytotoxicity call is “active”.

Consider `C=CCN(C(=O)[C@H]1N(CCOCCO)C(=O)[C@H]2[C@H](C(=O)O)[C@@H]3C=C[C@@]21O3)C(C)(C)C`, for which the cytotoxicity call is “inactive”. The entry for `C[C@H](C(=O)O)N1C(=O)CCC1=O` is “inactive”; for `O=C1CCc2cc(OCCCCc3nnnn3C3CCCCC3)ccc2N1` it is “inactive”.

As for `C[C@@H]1CCCCO[C@@H](CN(C)Cc2ccc(Cl)c(Cl)c2)[C@@H](C)CN([C@@H](C)CO)C(=O)c2cc(NS(=O)(=O)c3ccccc3)ccc2O1`, the cytotoxicity call is “active”.

As for `C[C@@H]1CN([C@H](C)CO)C(=O)c2cc(NS(=O)(=O)c3ccccc3)ccc2O[C@H]1CN(C)Cc1ccc(Oc2ccccc2)cc1`, the cytotoxicity call is “inactive”. The result for `C[C@@H]1CCCCO[C@@H](CN(C)C(=O)Cc2ccccc2)[C@H](C)CN([C@H](C)CO)C(=O)c2cc(NC(=O)CCC(F)(F)F)ccc2O1` reads “inactive”; that for `CNC[C@@H]1OCCCC[C@H](C)Oc2ccc(NS(=O)(=O)c3cn(C)cn3)cc2C(=O)N([C@@H](C)CO)C[C@H]1C`, “inactive”. As to `Cc1sc(Nc2ccccc2)nc1-c1ccc(Cl)cc1`, the cytotoxicity call is “inactive”. The entry for `C[C@@H]1CN([C@H](C)CO)C(=O)c2cccc(NC(=O)Nc3ccc(C(F)(F)F)cc3)c2O[C@H]1CN(C)S(=O)(=O)c1ccc(Cl)cc1` is “inactive”; for `C=CCOC(=O)[C@@H]1[C@H]2C(=O)O[C@H](c3ccccc3)[C@H](c3ccccc3)N2[C@H](c2ccc(OCCOC(=O)[C@@H]3C[C@@H]4C(=O)N[C@@H](CCCCNC(C)=O)C(=O)N4[C@@H]3c3ccc(O)cc3)cc2)[C@@]12C(=O)Nc1ccccc12` it is “inactive”. The entry for `Cn1cc(C(=O)NCc2cn3c(n2)CNCC3)cn1` is “inactive”; for `Cn1cnc(S(=O)(=O)N[C@@H]2CC[C@@H](CC(=O)NCC3CC3)O[C@@H]2CO)c1` it is “inactive”. The result for `CCc1nnc(SCC(=O)O)n1N` reads “inactive”; that for `COc1ccc(NC(=O)Nc2ccc3c(c2)C(=O)N([C@@H](C)CO)C[C@@H](C)[C@H](CN(C)CC2CCCCC2)O3)cc1`, “inactive”; that for `C[C@@H]1CN([C@@H](C)CO)C(=O)Cc2cc(NC(=O)Cn3cnnn3)ccc2O[C@@H]1CN(C)CC1CC1`, “inactive”. Turning to `Cc1ccc(S(=O)(=O)N(C)C[C@H]2Oc3ccc(NC(=O)CCN4CCOCC4)cc3C(=O)N([C@H](C)CO)C[C@@H]2C)cc1`, the cytotoxicity call is “inactive”. Regarding `C=CCOC(=O)[C@@H]1[C@H]2C(=O)O[C@H](c3ccccc3)[C@H](c3ccccc3)N2[C@H](c2ccc(OCCOC(=O)[C@H]3C[C@H]4C(=O)N[C@@H](CC(C)C)C(=O)N4[C@H]3c3ccc(O)cc3)cc2)[C@@]12C(=O)Nc1ccc(I)cc12`, the cytotoxicity call was “inactive”.

For the compound `C[C@@H]1CN([C@H](C)CO)C(=O)Cc2cc(NC(=O)Nc3ccc(C(F)(F)F)cc3)ccc2O[C@@H]1CN(C)S(C)(=O)=O`, the cytotoxicity call was “inactive”. The entry for `COc1cc2c(cc1OC)CN(C(=O)[C@@H]1[C@H]3C(=O)O[C@H](c4ccccc4)[C@H](c4ccccc4)N3[C@H](c3ccccc3OCCO)[C@@]13C(=O)Nc1ccc(C#CC4(O)CCCCCC4)cc13)CC2` is “inactive”. Turning to `C[C@@H]1CCCCO[C@H](CN(C)C(=O)Nc2ccccc2)[C@@H](C)CN([C@H](C)CO)C(=O)c2cc(NC(=O)Nc3cccc4ccccc34)ccc2O1`, the cytotoxicity call was “inactive”. The entry for `Cc1noc(C)c1S(=O)(=O)Nc1ccc2c(c1)CC(=O)N([C@H](C)CO)C[C@H](C)[C@@H](CN(C)S(=O)(=O)c1c(C)noc1C)O2` is “inactive”; for `C[C@@H]1CN([C@H](C)CO)C(=O)c2cc(/C=C/c3ccccc3)cnc2O[C@@H]1CN(C)C(=O)C1CCOCC1` it is “inactive”. In the case of `COc1cc2c3cc1Oc1cc(ccc1O)O[C@H]1c4c(cc(OC)c(O)c4Oc4ccc(cc4)C[C@@H]3N(C)CC2)CCN1C`, the cytotoxicity call was “inactive”. The entry for `CCCOc1ccc(S(=O)(=O)N2CCN(CCO)CC2)cc1-c1nc2c(CCC)cn(CC)c2c(=O)[nH]1` is “inactive”; for `C[C@H](CO)N1C[C@H](C)[C@H](CN(C)Cc2ccccc2)Oc2ccc(NC(=O)Cn3cnnn3)cc2CC1=O` it is “inactive”.
